Assay results: the antibiotic and cytotoxicity screens of Wong et al. (2023)
The list shows a part of the results.

System: HSkMC (human skeletal muscle cells)
Assay: cytotoxicity call (relative viability < 0.9)
Conditions: 10 µM

Compound | cytotoxicity call
COC(=O)[C@@H]1CC(=O)N(C(C)C)C1 | inactive
C[C@@H]1CN([C@H](C)CO)S(=O)(=O)c2ccc(C3=CCCCC3)cc2O[C@@H]1CN(C)Cc1cncnc1 | inactive
CN(C)C(=O)C[C@H]1C=C[C@@H](NC(=O)C2CCOCC2)[C@@H](CO)O1 | inactive
COc1cccc(CNC(=O)C[C@H]2C=C[C@@H](NC(=O)C3CCOCC3)[C@@H](CO)O2)c1 | inactive
COc1ccccc1CN1C[C@@H](C)[C@H](OC)CN(C)C(=O)c2ccc(NC(=O)Nc3ccccc3OC)cc2OC[C@H]1C | inactive
C[C@@H]1CN([C@@H](C)CO)C(=O)Cc2cc(NC(=O)Cn3cnnn3)ccc2O[C@H]1CN(C)C(=O)Nc1ccc2c(c1)OCO2 | inactive
C[C@@H](N)CCCP(=O)(O)O | inactive
C[C@@H]1CN([C@H](C)CO)C(=O)c2cccc(NS(=O)(=O)c3cn(C)cn3)c2O[C@@H]1CN(C)S(=O)(=O)c1ccc(F)cc1 | inactive
C[C@H](CO)N1C[C@H](C)[C@@H](CN(C)Cc2ccc(-c3ccccc3)cc2)Oc2c(NC(=O)C3CC3)cccc2C1=O | inactive
C[C@H](CO)N1C[C@H](C)[C@@H](CN(C)C(=O)NC2CCCCC2)Oc2ccc(NC(=O)CCN3CCOCC3)cc2C1=O | inactive
C[C@H](CO)N1C[C@H](C)[C@@H](CN(C)Cc2ccc(-c3ccccc3)cc2)Oc2c(NS(=O)(=O)c3cccs3)cccc2C1=O | inactive

System: HepG2
Assay: cytotoxicity call (relative viability < 0.9)
Conditions: 10 µM

Compound | cytotoxicity call
C[C@@H]1CN([C@@H](C)CO)C(=O)c2cc(NC(=O)Nc3ccc4c(c3)OCO4)ccc2O[C@H]1CN(C)S(=O)(=O)c1cn(C)cn1 | inactive
C[C@H]1CCCCO[C@@H](CN(C)C(=O)Nc2ccc(C(F)(F)F)cc2)[C@@H](C)CN([C@@H](C)CO)C(=O)c2cc(NC(=O)CCC(F)(F)F)ccc2O1 | inactive
CCOC(=O)[C@H]1CNC(=S)N[C@@]1(C)O | inactive
COc1ccc(NC(=O)Nc2ccc3c(c2)C(=O)N([C@@H](C)CO)C[C@H](C)[C@H](CN(C)C(=O)Nc2ccc(OC)cc2)OCCCC[C@@H](C)O3)cc1 | inactive
COc1ccc(S(=O)(=O)Nc2ccc3c(c2)CC(=O)N([C@H](C)CO)C[C@H](C)[C@H](CN(C)Cc2ccc(Oc4ccccc4)cc2)O3)cc1 | active
C[C@@H]1CCCCO[C@@H](CN(C)Cc2ccc(C(=O)O)cc2)[C@H](C)CN([C@H](C)CO)C(=O)c2cc(NC(=O)NC3CCCCC3)ccc2O1 | inactive
Cc1noc(C)c1NC(=O)Nc1ccc2c(c1)C(=O)N([C@@H](C)CO)C[C@@H](C)[C@@H](CN(C)Cc1ccc(C(F)(F)F)cc1)OCCCC[C@H](C)O2 | inactive
COC(=O)[C@@H](Cc1ccc(-n2cc(COc3ccccc3/C=C(C)/C=C/C(=O)NO)nn2)cc1)N1CC2=C[C@H](C3CC3)n3c(=O)n(C)c(=O)n3[C@@H]2[C@H]1[C@H](O)Cc1ccccc1 | inactive
N[C@H](C(=O)O)[C@@H]1CC(Cl)=NO1 | active
C[C@H]1CN([C@@H](C)CO)C(=O)c2cccc(NC(=O)CCCCCC(=O)Nc3ccccc3N)c2O[C@H]1CN(C)C(=O)Nc1ccccc1 | inactive
CC1(C)SC2C(NC(=O)C(NC(=O)N3CCNC3=O)c3ccccc3)C(=O)N2C1C(=O)[O-].[Na+] (stereo unspecified) | inactive
CC(C)C[C@](O)(C(=O)OCc1ccc(O[C@@H]2O[C@H](CO)[C@@H](O)[C@H](O)[C@H]2O)cc1)[C@@H](O)C(=O)OCc1ccc(O[C@@H]2O[C@H](CO)[C@@H](O)[C@H](O)[C@H]2O)cc1 | inactive
O=C(C[C@H]1CC[C@H]2[C@@H](COC[C@@H](O)CN2C(=O)Nc2ccc3c(c2)OCO3)O1)N1CCN(c2ccccc2)CC1 | inactive
C[C@H](CO)N1C[C@H](C)[C@@H](CN(C)Cc2ccc(Cl)c(Cl)c2)Oc2c(NC(=O)Nc3cccc4ccccc34)cccc2C1=O | inactive
COc1ccc(NC(=O)Nc2ccc3c(c2)[C@H]2C[C@@H](CC(=O)NCC(F)(F)F)O[C@@H](CO)[C@H]2O3)cc1 | inactive
COc1cc2c3cc1Oc1cc(ccc1O)O[C@H]1c4c(cc(OC)c(O)c4Oc4ccc(cc4)C[C@@H]3N(C)CC2)CCN1C | inactive
C=CCn1c(=O)c2c(OC)ccnc2n(C)c1=O | inactive
C[C@H](CO)N1C[C@H](C)[C@H](CN(C)Cc2ccc(C(=O)Nc3ccccc3N)cc2)OCc2cn(nn2)CCCC1=O | inactive
COCC(=O)N(C)C[C@@H]1Oc2cc(C#CCN(C)C)ccc2S(=O)(=O)N([C@@H](C)CO)C[C@H]1C | inactive
C[C@H](CO)N1C[C@H](C)[C@@H](CN(C)Cc2ccc3c(c2)OCCN3C)OCc2ccccc2-c2c(n(C)c3ccccc23)C1=O | inactive

Compound | cytotoxicity call
COc1ccc(C#Cc2cnc3c(c2)C(=O)N([C@H](C)CO)C[C@H](C)[C@H](CN(C)S(=O)(=O)c2ccc(F)cc2)O3)cc1OC | inactive
C[C@H](CO)N1C[C@H](C)[C@@H](CN(C)Cc2ccc(Cl)c(Cl)c2)Oc2ccc(NC(=O)Nc3ccccc3)cc2CC1=O | inactive
Cc1noc(C)c1NC(=O)N[C@@H]1C=C[C@H](CC(=O)NCCCN(C)C)O[C@H]1CO | inactive
O=C(Nc1cccc2ccccc12)c1ccc(C(F)(F)F)cc1 | inactive
C[C@H](CO)N1C[C@H](C)[C@@H](CN(C)C(=O)Nc2cccc(C(F)(F)F)c2)OCc2cnnn2CCCC1=O | inactive
COc1cccc(S(=O)(=O)Nc2ccc3c(c2)[C@H]2C[C@H](CC(=O)NCc4cccc(F)c4)O[C@@H](CO)[C@H]2O3)c1 | inactive
Cc1cc(C)nc(NS(=O)(=O)c2ccc(N)cc2)n1 | inactive
Cc1cc(O)cc(O)c1C(=O)O | inactive
C[C@@H]1CCCCO[C@@H](CN(C)C(=O)Nc2cccc3ccccc23)[C@@H](C)CN([C@@H](C)CO)C(=O)c2cc(NC(=O)C3CCCCC3)ccc2O1 | inactive
COC(=O)[C@@H]1CC(=O)N(C(C)C)C1 | inactive
C[C@@H]1CN([C@H](C)CO)S(=O)(=O)c2ccc(C3=CCCCC3)cc2O[C@@H]1CN(C)Cc1cncnc1 | inactive
CN(C)C(=O)C[C@H]1C=C[C@@H](NC(=O)C2CCOCC2)[C@@H](CO)O1 | inactive
COc1cccc(CNC(=O)C[C@H]2C=C[C@@H](NC(=O)C3CCOCC3)[C@@H](CO)O2)c1 | inactive
COc1ccccc1CN1C[C@@H](C)[C@H](OC)CN(C)C(=O)c2ccc(NC(=O)Nc3ccccc3OC)cc2OC[C@H]1C | inactive
C[C@@H]1CN([C@@H](C)CO)C(=O)Cc2cc(NC(=O)Cn3cnnn3)ccc2O[C@H]1CN(C)C(=O)Nc1ccc2c(c1)OCO2 | inactive
C[C@@H](N)CCCP(=O)(O)O | inactive
C[C@@H]1CN([C@H](C)CO)C(=O)c2cccc(NS(=O)(=O)c3cn(C)cn3)c2O[C@@H]1CN(C)S(=O)(=O)c1ccc(F)cc1 | inactive
C[C@H](CO)N1C[C@H](C)[C@@H](CN(C)Cc2ccc(-c3ccccc3)cc2)Oc2c(NC(=O)C3CC3)cccc2C1=O | inactive
C[C@H](CO)N1C[C@H](C)[C@@H](CN(C)C(=O)NC2CCCCC2)Oc2ccc(NC(=O)CCN3CCOCC3)cc2C1=O | inactive
C[C@H](CO)N1C[C@H](C)[C@@H](CN(C)Cc2ccc(-c3ccccc3)cc2)Oc2c(NS(=O)(=O)c3cccs3)cccc2C1=O | inactive
